In PubChem BioAssay (NCI):
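Protocol summary: plate cells (96-well), add compound at 5 concentrations, incubate 48 h, interpolate endpoints linearly. Here, GI50 denotes the concentration required for 50% inhibition of growth. TGI denotes the concentration required for complete inhibition of growth.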

Each molecule was assayed on NCI-H322M lung (assay: NCI tumour cell line growth inhibition, 48 h).
Molecule `CN1CCN(c2ccc(Nc3nc(NCCNC(=O)c4ccc(C(F)(F)F)cc4)c4sccc4n3)cc2)CC1` has a GI50 of 12.1 µM and a TGI of 24.5 µM. `CC1=C2C(=C[C@@](C)(CO)[C@@H]2O)/C(=N\N)[C@](C)(O)C12CC2` gave a GI50 of 2.32 µM and a TGI of 6.52 µM. In the case of `CC1(C)CC[C@]2(C(=O)Nc3ccc(F)cc3)CC[C@]3(C)C(=CCC4[C@@]5(C)C[C@@H](O)[C@H](O)[C@@](C)(CO)C5CC[C@]43C)C2C1` (stereo partly specified), the GI50 is reported as 20.1 µM and the TGI is reported as 56.6 µM.
